Experimental data published in PubChem BioAssay (NCI).
“And” between values parts separate entries of the source, which are not always exact repeats. Identical values can stand only once.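 All cell lines were grown in 96-well plates and treated with compound for 48 hours. Abbreviation: GI50, concentration required for 50% inhibition of growth. TGI: concentration producing complete growth inhibition.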

system: NCI-H322M lung; experiment: inhibition of tumour cell growth, NCI panel, 48 h

SMILES	TGI	GI50
CC(C)(C)c1cc(/C=C/C(=O)CC(=O)/C=C/c2cc(C(C)(C)C)c(O)c(C(C)(C)C)c2)cc(C(C)(C)C)c1O	> 50 µM	–
CCC/C(Cl)=N\OC(=O)Nc1ccc(F)c([N+](=O)[O-])c1	> 100 µM	–
CCCCNC(=S)c1ccc(OC(=O)Nc2ccc(Cl)cc2)cc1	> 100 µM	–
CCCCCC(O)(CCCCC)CCCCCCCCC1=C(O)c2ccccc2C(=O)C1=O	79.7 µM	–
NC(=O)C(=Cc1ccc(CP(=O)(O)O)cc1)C(N)=O	> 100 µM	–
Nc1nc(NC2C=C(CO)C(O)C2O)c([N+](=O)[O-])c(=O)[nH]1 (stereo unspecified)	> 100 µM	–
COc1ccc2nc3cc([N+](=O)[O-])ccc3c(NCCCN(CCO)CCO)c2c1	19.1 µM	7.09 µM
CC1(C)OCC(COC(=O)NCn2cc(-c3ccccc3)nn2)O1 (stereo unspecified)	> 100 µM	–
CN[C@@H]1C[C@H]2O[C@@](C)([C@@H]1OC)n1c3ccccc3c3c4c(c5c6ccccc6n2c5c31)C(=O)N[C@H]4O	0.941 µM	0.0613 µM
COC12OC3CC4(C)C(=CC3OC(OC(C)C1O)C2O)CCC1C4CCC2(C)C(c3ccc(=O)oc3)CCC12O (stereo unspecified)	0.00252 µM	–
C[C@H](CN1CC(=O)NC(=O)C1)N1CC(=O)NC(=O)C1	> 100 µM	–
COc1ccc(N=N/C(=N/NC(=O)c2cc(Cl)ccc2C(=O)c2ccccc2)c2ccc(N(CCC#N)CCC#N)cc2C)cc1	> 100 µM	–
CCCCN=C(NC#N)N(Cc1ccccc1)Cc1ccccc1	> 100 µM	–
CC1CC(=O)Nc2ccc(N=NN(C)C)cc2N1C=O (stereo unspecified)	> 100 µM	–
C[C@H](N)C(=O)N[C@@H]1[C@H]2C(=C(O)C[C@@H](O)[C@@H]2O)C(=O)O[C@@H]1C	> 100 µM	–
COc1cc(C=O)c(-c2cc3c(cc2C2(C)OCCS2)OCO3)c(OC)c1OC (stereo unspecified)	> 136 µM	–
COC(=O)[C@@]12OC[C@]34C([C@@H](O)C1O)[C@@]1(C)CC(=O)C(O)=C(C)C1C[C@H]3OC(=O)[C@H](OC(=O)/C=C(/c1ccccc1)C(F)(F)F)[C@H]42 (stereo partly specified)	> 25 µM	–
O=C(Cn1c(=O)oc2ccc(C(=O)c3ccccc3Cl)cc21)c1ccc([N+](=O)[O-])cc1	> 100 µM	–
COC(=O)c1c(O)ccc2c1c1c(n2Cc2ccccn2)C(=O)c2ccccc2C1=O	> 100 µM	–
O=c1oc(-c2ccccc2)cc2cccc(O)c12	70.1 µM	20.2 µM
COc1cc(O)c2c(=O)c(OC)c(-c3ccc4c(c3)OCO4)oc2c1OC	> 50 µM	–
CCN(CC)CCCC(C)Nc1c2ccc(Cl)cc2nc2cc(OC)c(OC)cc12 (stereo unspecified)	5.07 µM	1.73 µM
N/C(=N\N=C\c1cc2c(cc1Cl)OCO2)NO	> 100 µM	–
CNc1ncnc2c1nnn2C	> 100 µM	–
N#Cc1ccc(C2C3=C(CCCC3=O)OC3=C2C(=O)c2ccccc2C3=O)cc1 (stereo unspecified)	27.2 µM	12.1 µM

SMILES	TGI	GI50
O=c1nc(NC(c2ccccc2)(c2ccccc2)c2ccccc2)ccn1CCO	> 100 µM	–
COc1cc2c(cc1OC)C(CC1(O)CCCCC1)N(S(=O)(=O)c1ccc(C)cc1)CC2 (stereo unspecified)	> 10 µM	> 10 µM
COc1cc([C@H]2c3cc4c(cc3[C@H](NCc3ccc([N+](=O)[O-])cc3)C3COC(=O)[C@H]32)OCO4)cc(OC)c1O (stereo partly specified)	> 100 µM	–
COP(=O)(OC)c1ccc(NCc2cc(O)ccc2O)cc1	> 100 µM	–
CCOC(=O)c1cn(CC)c2cc3c(cc2c1=O)CCS3(=O)=O	> 100 µM	–
CCNc1cc2c3c(c1)CCCN3CCC2	33.7 µM	–
Cn1c(N=[N+]=[N-])cc(=O)n(C)c1=O	> 100 µM	–
CCOC(=O)c1cc2c(cn1)[nH]c1cccc(N)c12	> 100 µM	–
CO[C@H]1C[C@H](n2cc(C)c(=O)[nH]c2=O)O[C@@H]1CO	> 100 µM	–
O=C1OC(c2ccc(Cl)cc2)(c2ccc(Cl)cc2)c2c1ccc1ccccc21	> 100 µM	–
O=S(=O)(O)c1cc(Nc2ccnc3ccccc23)c2c(S(=O)(=O)O)cc(S(=O)(=O)O)cc2c1	> 100 µM	–
COc1ccc2c3c(c4ccccc4cc13)C(=O)N(CCN(C)CCN)C2=O	1.95 µM	0.378 µM
CC(C)(O)[C@@H]1CC[C@@]2(C)CCC[C@H](O)[C@H]2C1	> 100 µM	–
CCCCCCCC(=O)OCC1OC(n2cc(F)c(=O)[nH]c2=O)C(NC(=O)OCc2ccccc2)C(O)C1O (stereo unspecified)	> 100 µM	–
O=C1c2ccccc2-c2nnc(-c3ccc(Cl)cc3)cc21	> 10 µM	–
O=C(NN1C(=O)CSC1c1ccco1)c1ccncc1 (stereo unspecified)	> 100 µM	–
COc1ccc(-c2nnc(-c3c(C)n(C)n(-c4ccccc4)c3=O)o2)cc1	> 100 µM	–
O=C(NCCCCCCNC(=O)n1cc(F)c(=O)[nH]c1=O)NCCCOCCOCCOCCOCCOCCOCCOCCOCCOCCOCCOCCOCCOCCOCCOCCOCCOCCOCCOCCOCCOCCCNC(=O)C(O)C(O)C(OC1OC(CO)C(O)C(O)C1O)C(O)CO (stereo unspecified)	> 100 µM	–
CC(C)N1CCC2(CC1)NNc1ncccc1-n1cccc12	> 100 µM	–
CN1CCN(/C(N)=C(\C#N)C(=O)Nc2ccccc2)CC1	> 100 µM	–
CN1C(=O)C(=Cc2cn(Cc3ccccc3)c3ccccc23)C(=O)N(C)C1=O	> 100 µM	30.3 µM
CSc1n(Cc2ccc3ccccc3c2)c(C)c[n+]1Cc1ccc2ccccc2c1	2.81 µM	1.43 µM
Cc1nc2c(Cl)cc(Cl)cc2c(Cl)c1CCCl	> 100 µM	–
Clc1ccc2nc(CC3CCCC3)[nH]c2c1	50.5 µM	–
CCOC(=O)C1C[C@H]2CO[C@H](c3ccccc3)N2C1=O (stereo partly specified)	> 100 µM	–

SMILES	TGI	GI50
CSc1nc(SC)c2c(C(N)=S)[nH]nc2n1	> 100 µM	–
CCCCCCCCCCCCCCCCCCOc1ccc(/C=C/C2=[N+](CCCl)CCO2)cc1	> 100 µM	–
CCn1c2ccc(C(=O)CCCN(C)C)cc2c2cc(C(=O)CCCN(C)C)ccc21	5.39 µM	–
O=C(Cc1ccccc1)N=Nc1c(O)[nH]c2ccccc12	> 100 µM	–
CC(=O)OCc1ccc(O)c(C=O)c1	> 100 µM	–
Oc1ccc2ccccc2c1C1NN=C(c2ccccc2)S1 (stereo unspecified)	> 72.5 µM	0.575 µM
Cc1cc2c(cc1-c1cc3c(cc1C)C(C(C)C)=C(O)C(=O)/C3=C\Nc1c(C)n(C)n(-c3ccccc3)c1=O)/C(=C/Nc1c(C)n(C)n(-c3ccccc3)c1=O)C(=O)C(O)=C2C(C)C	> 100 µM	–
NC(CC(=O)Nc1ccc(Cl)cc1)=Nc1ccccc1	> 100 µM	–
NNC(=O)CCC(NS(=O)(=O)c1ccc(Cl)cc1)C(=O)NN (stereo unspecified)	> 100 µM	–
O=C1C2=C(CCCCC2)C2CCCCC12O (stereo unspecified)	> 100 µM	–
COc1ccc2c(c1)CCc1[nH]nc(-c3cc(OC)c(OC)c(OC)c3)c1-2	39.5 µM	< 0.01 µM
O=C(O)C1C(=O)Oc2c(cccc2[N+](=O)[O-])C1O (stereo unspecified)	> 100 µM	–
Clc1ccc(/C=N/Nc2nnc3c4ccccc4c4ncccc4c3n2)cc1	> 10 µM	–
CN1CCC(C(=O)Nc2n[nH]c3nc(-c4ccc(O)cc4)c(Br)cc23)CC1	> 25 µM	6.04 µM and 8.93 µM
COc1ccc2oc(=Nc3ccc(F)cc3)c(C(N)=O)cc2c1	> 100 µM	–
CC1=Nc2c(C#N)ncn2N=C(C)C1	> 100 µM	–
O=C1[C@H]2ON(c3ccccc3)C(c3ccccc3F)[C@H]2C(=O)N1c1ccc(Cc2ccc(N3C(=O)[C@@H]4ON(c5ccccc5)C(c5ccccc5F)[C@@H]4C3=O)cc2)cc1 (stereo partly specified)	> 100 µM	–
COc1ccc(CCNC(=O)CCCCCO)cc1OC	> 100 µM	–
C/C(=N\NC(=O)c1cccnc1)c1cccc(/C(C)=N/NC(=O)c2cccnc2)n1.CC(=O)[O-].CC(=O)[O-].[Zn+2]	> 100 µM	–
CN(C)CCNC(=O)c1cccc2[nH]c(-c3ccncc3)nc12	> 39.4 µM	–
COc1ccc(-c2cn(-c3cccc(C(=O)/C=C/c4ccc(O)c(OC)c4)c3)c(=O)[nH]2)cc1	> 92 µM	5.83 µM
COc1cc(/C=c2/c3ccccc3n3c2cc(-c2ccccc2)[n+]3C)cc(OC)c1OC	> 49 µM	–
CC(=O)Nc1ccc(-c2nnc(SCC(=O)Nc3cccc([N+](=O)[O-])c3)o2)cc1	78.7 µM	–
CC(=O)OC(C)(C)/C=C/C(=O)[C@](C)(O)[C@H]1[C@H](O)C[C@@]2(C)[C@@H]3CC=C4[C@@H](C[C@H](O)C(=O)C4(C)C)[C@]3(CO)C(=O)C[C@]12C	62.5 µM	2.68 µM
N#Cc1ccc(Nc2cnc3ccc(N)cc3n2)cc1	> 100 µM	–

SMILES	TGI	GI50
Cc1ccc(C(=O)C2=CN=C3C(=O)N(c4ccccc4)N(C)C3(C)C2=N)cc1 (stereo unspecified)	> 100 µM	–
Cc1oncc1NC1=CC(=O)C(=O)c2ccccc21	38.4 µM	–
COc1ccc([I+]c2ccccc2)cc1	> 100 µM	8.19 µM
COc1cc(C2c3cc4c(cc3OC3(OC)COC(=O)C23)OCO4)cc(OC)c1OC (stereo unspecified)	> 100 µM	–
Cc1cc2c(c(C(=O)NCCC(=O)N[C@@H](C)C(=O)OCc3ccccc3)c1)Oc1c(cc(C)cc1C(=O)NCCC(=O)N[C@@H](C)C(=O)OCc1ccccc1)S2	> 100 µM	–
C[n+]1c2ccccc2c(Nc2ccc(NS(=O)(=O)CCCCN=C(N)N)cc2)c2ccc(N)cc21	> 85.5 µM	16.2 µM
NC(=O)c1ncn2c(=O)n(CCl)nnc12	> 100 µM	–
COc1ccc(/C(Cl)=C(\C=O)c2ccccc2)cc1OC	> 100 µM	–
C/C(CC(=O)Nc1ccc(Cl)cc1)=N\NC(=O)C[n+]1ccccc1	> 100 µM	–
COc1ccc2c(c1)c1nc3cc(C)c(C)cc3nc1n2CCN(C)C	2.32 µM	0.706 µM
N#C/C(=C\Nc1ccccn1)C(=O)c1ccco1	> 100 µM	–
CC(=O)C1COC(O)C1C (stereo unspecified)	> 100 µM	–
Clc1cccc(N2CCN(CCN3CCc4c([nH]c5ccccc45)C3c3cccnc3)CC2)c1 (stereo unspecified)	> 100 µM	–
c1ccc(Nn2c(CCCCCCCCc3nnc(COc4ccccc4)n3Nc3ccccc3)nnc2COc2ccccc2)cc1	> 300 µM	> 300 µM
Cc1ccc(-c2cc(=O)c3cc(C)c(C)c(C(=O)O)c3o2)cc1	> 100 µM	–
O=c1oc2c/c(=C\c3ccccc3)c(=O)c3cccc1c3-2	> 100 µM	–
Cc1cc([N+](=O)[O-])ccc1NS(=O)(=O)c1cc(Cl)ccc1Cl	> 100 µM	4.4 µM
Cc1ccc(C(=O)N2c3ccccc3N(C)n3cccc3C2CC(=O)O)cc1 (stereo unspecified)	> 100 µM	–
COc1cc(-c2csc(NC(=O)Nc3cc(C(F)(F)F)cc(C(F)(F)F)c3)n2)cc(OC)c1OC	13.1 µM	2.82 µM
C=C1C(=O)O[C@@H]2OC3(C)CCC4C(C)CCC1C42OO3 (stereo partly specified)	26 µM and 17.3 µM	13.2 µM
COc1ccc(-c2nnc(-c3ccncc3)o2)cc1	> 100 µM	–
O=C(NC12CC3CC(CC(C3)C1)C2)C(=O)c1c[nH]c2ccc([N+](=O)[O-])cc12	> 100 µM	–
CC(C)=CCCC1(Sc2ccccc2)C(=O)OCC1C=C(C)C (stereo unspecified)	> 100 µM	–
CCCOC(=O)N[C@H]1CCc2cc(OC)c(OC)c(OC)c2-c2ccc(SC)c(=O)cc21	> 100 µM	< 0.01 µM
